# Reference: the supplement of paper PMC4166925
# ± gives the standard deviation of the averaged measurements. Over roughly 33,000 sequences, “E-score (dimensionless, -0.5 to 0.5)” has its median near -0.046; the highest 2% begin near 0.36. This is one part of the list.
# Test system: T1, SpTbr T-box DNA-binding domain (GST fusion)
# T1 sequence: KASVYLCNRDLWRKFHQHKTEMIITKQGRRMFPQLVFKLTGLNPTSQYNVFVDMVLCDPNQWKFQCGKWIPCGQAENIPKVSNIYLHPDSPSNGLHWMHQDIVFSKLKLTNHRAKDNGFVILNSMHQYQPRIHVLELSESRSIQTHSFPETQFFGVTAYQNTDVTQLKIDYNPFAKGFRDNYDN
# Assay: PBM E-score of 8-mer (E-score (dimensionless, -0.5 to 0.5)); Tbr is Tbrain of the sea star Patiria miniata (Pm) or the sea urchin Strongylocentrotus purpuratus (Sp); higher = stronger binding preference; most listed sequences are background and not binding sites
# Conditions: the construct has about 5 more residues each side
# In short: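 Primer extension turned Universal Agilent oligonucleotide arrays double-stranded. They were incubated with 200 nM protein in PBS (pH 7.5); the protein was a GST-fused Tbr T-box DNA-binding domain expressed in BL21 E. coli at 20 °C and purified on glutathione. Every ungapped 8-mer was scored from the scanned, quantified probe intensities, and the Universal PBM Analysis Suite gave each an enrichment E-score averaged over duplicate arrays.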
row,Sequence,PBM E-score of 8-mer
1,TAAGACAA,-0.0499 ± 0.041
2,GCAACCAA,-0.19 ± 0.01
3,CTTCCCAC,0.253 ± 0.032
4,GGAACACC,0.223 ± 0.035
5,AGAACTAA,-0.136 ± 0.018
6,ATCGACGG,-0.00276 ± 0.012
7,GACCCTCC,-0.111 ± 0.013
8,TCAACGCA,0.12 ± 0.0066
9,GACGGTGA,-0.109 ± 0.032
10,CGTAGAGC,-0.325 ± 0.035
11,CCATTCGA,-0.14 ± 0.034
12,GACGTGGA,-0.193 ± 0.081
13,AAGTAGCC,-0.123 ± 0.0025
14,AGAGAGAC,-0.14 ± 0.036
15,GCGAATTA,0.134 ± 0.069
16,ACAATTGG,0.116 ± 0.035
17,GAGCTTGC,-0.19 ± 0.0061
18,AACATTTC,-0.0421 ± 0.076
19,CCGACTCC,-0.189 ± 0.03
20,GGTAATCA,0.0652 ± 0.0063
21,TAAAAGGA,0.111 ± 0.022
22,CTTGCGTC,-0.011 ± 0.059

row,Sequence,PBM E-score of 8-mer
1,AAATCCAT,-0.13 ± 0.052
2,AGCTACAG,-0.0943 ± 0.026
3,ATGTGAAT,0.0698 ± 0.064
4,AGTTTACA,0.227 ± 0.01
5,AAAGAAGC,-0.193 ± 0.023
6,CCTCCTTC,-0.039 ± 0.045
7,CCAAGCGC,0.155 ± 0.025
8,ACAGCGCA,-1.5e-05 ± 0.028
9,ATCCGGCG,-0.12918 ± 9.2e-05
10,ATACGGAT,0.0271 ± 0.0067
11,GGACTGCC,-0.0237 ± 0.028
12,ATTAGCAC,0.368 ± 0.038
13,CTACCCCC,-0.382 ± 0.012
14,GAGCCGCA,-0.00751 ± 0.028
15,CCGACCGA,-0.2527 ± 0.002
16,GGACTATA,-0.00851 ± 0.018
17,CGAATTGC,0.148 ± 0.0032
18,AGGTACCG,-0.0809 ± 0.0053
19,TCGCGGAA,0.171 ± 0.024
20,GAATCTGC,-0.0922 ± 0.056
21,GATTTTGC,0.0964 ± 0.028
22,GCGACACC,0.432 ± 0.021

row,Sequence,PBM E-score of 8-mer
1,ACCCCTTC,0.0858 ± 0.032
2,CATCGCCG,-0.0375 ± 0.079
3,CCACCGGC,-0.0932 ± 0.04
4,CGTCTTTA,-0.184 ± 0.054
5,CCCTTGCC,-0.14 ± 0.0031
6,ATTCTTAA,-0.137 ± 0.08
7,CCGGGAAC,-0.0977 ± 0.11
8,CAGCACTC,-0.0116 ± 0.0032
9,ATCGGGTC,0.0101 ± 0.02
10,CGTTAGAG,-0.00014 ± 0.072
11,ATGTGGTA,-0.0475 ± 0.041
12,GCGAGAGA,0.203 ± 0.061
13,ACTGATCT,-0.141 ± 0.032
14,GAGGACAC,0.155 ± 0.015
15,ACCTCCAC,0.172 ± 0.038
16,GCTATCCA,0.0217 ± 0.0038
17,GCGGCAAC,0.181 ± 0.066
18,ACATGCGA,0.104 ± 0.028
19,TCGTCAGA,-0.00592 ± 0.0082
20,AGGATAGG,-0.0973 ± 0.081
21,GAGTTATA,-0.15 ± 0.078
22,GGCGAGGA,0.16 ± 0.036

row,Sequence,PBM E-score of 8-mer
1,CCCTTTTA,-0.0476 ± 0.07
2,GCCATACC,-0.145 ± 0.034
3,CGGACTAG,-0.03 ± 0.031
4,AGCCGGAG,-0.104 ± 0.047
5,AGGATCGA,-0.0329 ± 0.09
6,ACAGGCAT,-0.0336 ± 0.024
7,CCTGAACC,-0.209 ± 0.072
8,GTATACAC,-0.0205 ± 0.003
9,GGCAGCCC,-0.184 ± 0.038
10,CCATGTCA,-0.00826 ± 0.057
11,GAAGGCAC,0.0479 ± 0.015
12,CCTTGGAC,-0.195 ± 0.0061
13,CTTAGTGC,0.0877 ± 0.047
14,GGGGACAC,0.153 ± 0.039
15,AGCAAGCG,-0.0648 ± 0.046
16,GTTGCGCA,0.104 ± 0.017
17,GTGTCCGA,0.171 ± 0.069
18,AAGACCTT,-0.259 ± 0.0063
19,ATTCCGTC,0.00686 ± 0.032
20,TGTCCAAA,-0.0031 ± 0.015
21,AGGAGGAT,-0.11 ± 0.022
22,CACCGGGC,-0.164 ± 0.12

row,Sequence,PBM E-score of 8-mer
1,GGGGGTGA,0.289 ± 0.03
2,AACCCACT,-0.195 ± 0.0064
3,AAGCCTAC,-0.225 ± 0.013
4,CCCGCTTC,0.139 ± 0.082
5,GTTAAAAA,-0.0311 ± 0.096
6,ATCAATTC,0.0449 ± 0.052
7,ACCAGCCT,-0.119 ± 0.023
8,GCTTGTCC,-0.146 ± 0.0018
9,CCAGCGAG,0.0748 ± 0.06
10,CTTGGAAA,-0.115 ± 0.045
11,GCCACCGA,0.0804 ± 0.072
12,AGACCGAC,-0.0541 ± 0.047
13,AGCACTGA,0.0628 ± 0.0091
14,ACGTTATC,0.036 ± 0.0067
15,AACAGCCT,0.104 ± 0.021
16,ATCCTGAC,-0.0942 ± 0.08
17,CCCAGGGA,-0.213 ± 0.062
18,CGAAATCC,-0.0145 ± 0.03
19,TGGAGTAA,0.0229 ± 0.0036
20,CGCTAACA,0.32 ± 0.016
21,TCTTGCAA,0.0588 ± 0.0033
22,ATATTTTA,-0.179 ± 0.068
